For 42 sequences, binding signal results are on record in publication PMC7819943, “Rice protein-binding microarrays: a tool to detect cis-acting elements near promoter regions in rice”.

The other results are listed elsewhere or left out.

The test has as its target T1, OsWOX13 (Oryza sativa, UniProt Q5QMM3 1-267).
T1 sequence: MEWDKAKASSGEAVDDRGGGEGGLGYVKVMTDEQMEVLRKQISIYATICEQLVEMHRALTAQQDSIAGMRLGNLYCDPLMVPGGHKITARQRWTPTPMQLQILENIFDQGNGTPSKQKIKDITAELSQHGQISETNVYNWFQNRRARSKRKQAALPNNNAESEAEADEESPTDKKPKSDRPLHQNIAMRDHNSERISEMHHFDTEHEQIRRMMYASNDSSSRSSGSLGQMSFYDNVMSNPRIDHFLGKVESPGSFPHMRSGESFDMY
Put plainly: protein-binding microarray (RPBM); PBS, 2% BSA, 51.3 ng/ul salmon testes DNA, 50 uM zinc acetate, 200 nM TF, 25 C, 1 h; high values mean tight binding. The note with it: protein: recombinant; tags: N-terminal polyhistidine and DsRed monomer fusion (pET32a); label: CyDye5-dUTP incorporated in the synthesized complementary strand; 3' TTTTT single-stranded linker to array surface; dsDNA, one strand shown. In outline:
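In PBS with 2% BSA, salmon testes DNA and 50 µM zinc acetate, 200 nM protein was incubated on a custom Agilent array at 25 °C for 1 h and then washed off. The array had been made double-stranded by primer extension with Cy5-dUTP and blocked with 2% BSA. The proteins were transcription factors fused N-terminally to polyhistidine and DsRed, expressed in E. coli BL21-CodonPlus and purified on Ni–NTA. The binding signal is per-feature fluorescence intensity (arbitrary units) from an Axon 4000B scanner.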
Turning to “TCAAGTGATTGCTCCATTCATAACTTTTCATTTGAACTGACGGAGTCACCTAGTGCAG”, the binding signal was 16700 fluorescence intensity (a.u.).
Take “CCTCTGATTTATGCGTAATTAGATCTAGGTTCCCCACAAACGGAGTCACCTAGTGCAG”: the binding signal was 43600 fluorescence intensity (a.u.).
As to “GCAGCTGACAGATGGAGGGATGTTCAGGATGTCCGGAGAACGGAGTCACCTAGTGCAG”, the binding signal is 3250 fluorescence intensity (a.u.).
With “TCTGACCTGTATACTAATTTATGACCATATACTTAATCAACGGAGTCACCTAGTGCAG”, the binding signal was 5380 fluorescence intensity (a.u.).
Turning to “GTAAATTCACTAGTGACAATGATGGAAAATGTAAGGGGAACGGAGTCACCTAGTGCAG”, the binding signal was 3650 fluorescence intensity (a.u.).
Take “ATGATTATGTGGGTGCTTATGGAGGTATCCCTGAGACTTTCGGAGTCACCTAGTGCAG”: the binding signal is 4580 fluorescence intensity (a.u.).
Turning to “CATGCCAGTTAATTAGTAGTAGTATTGATGATGCATCTTACGGAGTCACCTAGTGCAG”, the binding signal was 8450 fluorescence intensity (a.u.).
In the case of “CGTGGTTGATTATCACGTGTCCATTAGGGTCCAGCTTATTCGGAGTCACCTAGTGCAG” it was 17000 fluorescence intensity (a.u.); in that of “TTGATTGAGAAAATCCCTTAAATTATAGAACGGAGGAGTACGGAGTCACCTAGTGCAG”, 47000 fluorescence intensity (a.u.).
Consider “AAATGTGATTGTGCTTACTTAAAGCCGTAAGCATTGACTACGGAGTCACCTAGTGCAG”, for which the binding signal was 7860 fluorescence intensity (a.u.).
The same measure for “GCCTGATTATAGACAATAAAGTTGGCGACGTTCCACGTCCCGGAGTCACCTAGTGCAG”: 22900 fluorescence intensity (a.u.); for “AATTAATTAAGGTGATATGGATTAATGAGAGAAGAAAATGCGGAGTCACCTAGTGCAG”: 17700 fluorescence intensity (a.u.).
In the case of “ACTGATAGATGTTAGTATCAACAAACTCCAAGGTGTGCTACGGAGTCACCTAGTGCAG” it was 33300 fluorescence intensity (a.u.).
The same measure for “GCTGACGATTTATAACTGGTTTTAATACTGGGTTTTGAACCGGAGTCACCTAGTGCAG”: 12100 fluorescence intensity (a.u.).
Turning to “CACCATAACTAATTAACAAGCCACCTATTTCCTCTTGACACGGAGTCACCTAGTGCAG”, the binding signal was 10800 fluorescence intensity (a.u.).
The same measure for “TATAAATTATGGACATGTTTAGACTAAGAACTGATCGAGTCGGAGTCACCTAGTGCAG”: 15000 fluorescence intensity (a.u.).
In the case of “TTGGATGAAATTTGTTATCAGAATTTGCGAAATTTTCATCCGGAGTCACCTAGTGCAG”, the binding signal is 4630 fluorescence intensity (a.u.).
The same measure for “CAACACACGGTTTGATTAACATATCTAACGGAAACCTGACCGGAGTCACCTAGTGCAG”: 3930 fluorescence intensity (a.u.).
“CTTGACACGAGAAATTCTGTCAAACACTCAATCAGCAGCACGGAGTCACCTAGTGCAG”: the binding signal was 11400 fluorescence intensity (a.u.).
In the case of “AGTTAATTGACAACTTATATTATACGATGCCATCACTCTACGGAGTCACCTAGTGCAG” it was 40200 fluorescence intensity (a.u.).
For “CTCAATAATGAATTAATGATCTTGAATTTGCTGATTTCAACGGAGTCACCTAGTGCAG”, the binding signal is 11500 fluorescence intensity (a.u.).
Regarding “TTGTATCTGGTTTTGTGATTGAAGGATGAAAATCGGATTCCGGAGTCACCTAGTGCAG”, the binding signal was 12500 fluorescence intensity (a.u.).
As to “TTAGCATATGATTATTTGAATATTAACTATCTGTTAATATCGGAGTCACCTAGTGCAG”, the binding signal was 3480 fluorescence intensity (a.u.).
In the case of “TGAACTTTGATCACTAATTAGTCTTAAAATAGTTCGATGGCGGAGTCACCTAGTGCAG” it was 13500 fluorescence intensity (a.u.); in that of “GACAACTTAATTAGTTAATTAACTGACGGCTGTGCAGAGACGGAGTCACCTAGTGCAG”, 39900 fluorescence intensity (a.u.).
Consider “CAGCAAATATATTGTTTAATTTAATCAATTTGCCTGCAAACGGAGTCACCTAGTGCAG”, for which the binding signal was 8180 fluorescence intensity (a.u.).
“CGCTTCCTGTTGTGATTATGTAATCTTGTATTCTTGTTGACGGAGTCACCTAGTGCAG”: the binding signal was 7400 fluorescence intensity (a.u.).
The same measure for “GTGATTGGATCTGTAATTATCAATCTCTCTCTCTCTCTCTCGGAGTCACCTAGTGCAG”: 64600 fluorescence intensity (a.u.); for “TGTTGAATGTTGATAGATTTATGCGATAACTCGGTATAGGCGGAGTCACCTAGTGCAG”: 14600 fluorescence intensity (a.u.).
The same measure for “ATAATAGATAAGTTAATAGATTTTGAAGTCAAAGTTTCTGCGGAGTCACCTAGTGCAG”: 25400 fluorescence intensity (a.u.); for “CCTGATTATTTGGTCTCGAATGGGTTCACATTCTTTATCTCGGAGTCACCTAGTGCAG”: 37600 fluorescence intensity (a.u.); for “ACATTAATCATAACATCATATGAATCAAGCATGCTCTAGCCGGAGTCACCTAGTGCAG”: 6430 fluorescence intensity (a.u.).
As for “TAACCTTAACCTGTTAATTAACAACAAAATTTAGATTCTACGGAGTCACCTAGTGCAG”, the binding signal was 14800 fluorescence intensity (a.u.).
With “ATCATAAATTATAAATTATTGTTCAGATTTATAGGTTTAGCGGAGTCACCTAGTGCAG”, the binding signal was 50000 fluorescence intensity (a.u.).
The same measure for “CTGAGGACACTTAATGATTGATGCTCATAATATATTGTTTCGGAGTCACCTAGTGCAG”: 17300 fluorescence intensity (a.u.); for “TAATAATTTACGCGCCATCCTGCTCCTATATATACTCATCCGGAGTCACCTAGTGCAG”: 12200 fluorescence intensity (a.u.); for “GCCGAGTTGACACAATTAACACCAAGCAATGGTCATTAGCCGGAGTCACCTAGTGCAG”: 7470 fluorescence intensity (a.u.).
“CCTGTAGTCCAATCATTGCTTCTAGAGGCTCAAGGCCTCTCGGAGTCACCTAGTGCAG”: the binding signal was 3860 fluorescence intensity (a.u.).
The same measure for “AATCACTAATTAGTGAGCAGATCATCCATCAACATAGATACGGAGTCACCTAGTGCAG”: 30700 fluorescence intensity (a.u.).
The same measure for “CGAAATTACAAATTTATAGATTCAAGCTATGTTATTGCACCGGAGTCACCTAGTGCAG”: 28800 fluorescence intensity (a.u.).
“TGTAATCAAAACTCTGATTTCTTATAATATAATGATGTCCCGGAGTCACCTAGTGCAG”: the binding signal was 8740 fluorescence intensity (a.u.).
The same measure for “AACTAGTAATCAACTAATCTTGATCAGATCCTCCTATAAACGGAGTCACCTAGTGCAG”: 8190 fluorescence intensity (a.u.).
